Measured values reported in the BET-seq Pho4 binding data (Le et al. 2018).
The list shows a part of the results. The energies were worked out here from pooled read counts, against the library average; single values are noisy.

What follows are sequences tested against T1, Pho4 (S. cerevisiae) (UniProt P07270) (assay: relative binding free energy (BET-seq); higher = weaker binding). Conditions: reference: library average.
T1 sequence: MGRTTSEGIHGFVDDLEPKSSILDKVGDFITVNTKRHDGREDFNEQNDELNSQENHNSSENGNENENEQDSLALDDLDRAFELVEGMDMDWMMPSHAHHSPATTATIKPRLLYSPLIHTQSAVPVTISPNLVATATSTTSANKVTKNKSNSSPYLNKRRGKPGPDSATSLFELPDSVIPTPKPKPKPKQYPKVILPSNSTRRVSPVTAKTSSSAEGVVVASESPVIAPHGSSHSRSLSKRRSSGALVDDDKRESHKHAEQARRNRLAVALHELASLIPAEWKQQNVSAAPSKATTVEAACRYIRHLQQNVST
In the case of AGTGACACGTGGGAAT, the “relative binding free energy” value is reported as -0.03 kcal/mol.
For CGGTACACGTGGTGCG, the “relative binding free energy” value was -0.02 kcal/mol.
With TAGGTCACGTGGAGTA the “relative binding free energy” value was 0.14 kcal/mol.
With TACTTCACGTGTGGAT the “relative binding free energy” value was 0.24 kcal/mol.
TCAGTCACGTGGGTGC was tested, and the “relative binding free energy” value was -0.11 kcal/mol.
With CGGTTCACGTGCGAGG the “relative binding free energy” value was 0.42 kcal/mol.
With TAAGTCACGTGTGTCT the “relative binding free energy” value was 0 kcal/mol.
With GTCTTCACGTGTTAAT the “relative binding free energy” value was 0.3 kcal/mol.
For GGTGTCACGTGACTTG, the “relative binding free energy” value was 0.18 kcal/mol.
In the case of GTTATCACGTGGTTGA, the “relative binding free energy” value is reported as 0.15 kcal/mol.
ATGCGCACGTGTCTTT was tested, and the “relative binding free energy” value was 0 kcal/mol.
In the case of AGGTGCACGTGGTTGA, the “relative binding free energy” value is reported as -0.17 kcal/mol.
TATTGCACGTGGCGAG was tested, and the “relative binding free energy” value was -0.07 kcal/mol.
For AAGTCCACGTGGGTTT, the “relative binding free energy” value was 0.02 kcal/mol.
For AAGGGCACGTGAGTAG, the “relative binding free energy” value was 0.08 kcal/mol.
In the case of GGAGGCACGTGACGAG, the “relative binding free energy” value is reported as -0.01 kcal/mol.
In the case of AAGAACACGTGGGAGG, the “relative binding free energy” value is reported as -0.06 kcal/mol.
TTAGTCACGTGGAGAT was tested, and the “relative binding free energy” value was 0.06 kcal/mol.
For TAGGGCACGTGTGAGG, the “relative binding free energy” value was -0.04 kcal/mol.
With GCTTGCACGTGGGTTG the “relative binding free energy” value was -0.09 kcal/mol.
For TCGGGCACGTGACGAG, the “relative binding free energy” value was 0.09 kcal/mol.
In the case of GTGGACACGTGTATGC, the “relative binding free energy” value is reported as 0.05 kcal/mol.
For CGGATCACGTGGTTAG, the “relative binding free energy” value was 0.12 kcal/mol.
AAATACACGTGGGGGA was tested, and the “relative binding free energy” value was -0.08 kcal/mol.
ATGCTCACGTGGGTTA was tested, and the “relative binding free energy” value was -0.03 kcal/mol.
With TTTGTCACGTGTGGCT the “relative binding free energy” value was 0.18 kcal/mol.
TGTCTCACGTGTTAAT was tested, and the “relative binding free energy” value was 0.32 kcal/mol.
With TGGTTCACGTGTACCG the “relative binding free energy” value was 0.3 kcal/mol.
For TACTCCACGTGGGGTT, the “relative binding free energy” value was 0.01 kcal/mol.
In the case of TTTTGCACGTGCGTGA, the “relative binding free energy” value is reported as -0.03 kcal/mol.
With GTGTACACGTGGAACG the “relative binding free energy” value was 0.11 kcal/mol.
In the case of ATTATCACGTGTAGGA, the “relative binding free energy” value is reported as 0.22 kcal/mol.
In the case of AAGAGCACGTGAGTTA, the “relative binding free energy” value is reported as 0.2 kcal/mol.
TGCGTCACGTGTGGAT was tested, and the “relative binding free energy” value was 0.14 kcal/mol.
For AATAGCACGTGGTTGA, the “relative binding free energy” value was -0.13 kcal/mol.
In the case of ATTATCACGTGAGTGG, the “relative binding free energy” value is reported as 0.23 kcal/mol.
TGCGTCACGTGGTCAT was tested, and the “relative binding free energy” value was 0.08 kcal/mol.
For GTTAACACGTGGGCGT, the “relative binding free energy” value was -0.05 kcal/mol.
In the case of TTAATCACGTGATTCG, the “relative binding free energy” value is reported as 0.27 kcal/mol.
ATGTTCACGTGAGCAT was tested, and the “relative binding free energy” value was 0.35 kcal/mol.
TGTGACACGTGGTTAA was tested, and the “relative binding free energy” value was -0.06 kcal/mol.
CATGGCACGTGTTGTA was tested, and the “relative binding free energy” value was -0.04 kcal/mol.
In the case of TGTATCACGTGATAGA, the “relative binding free energy” value is reported as 0.14 kcal/mol.
In the case of TATGTCACGTGTATTA, the “relative binding free energy” value is reported as -0.02 kcal/mol.
With GGATTCACGTGGCGTT the “relative binding free energy” value was 0.37 kcal/mol.
With TGTAACACGTGATTTA the “relative binding free energy” value was 0.26 kcal/mol.
For TAGGACACGTGTGTTT, the “relative binding free energy” value was 0.21 kcal/mol.
CTGCACACGTGGGGGT was tested, and the “relative binding free energy” value was -0.21 kcal/mol.
In the case of CGGGTCACGTGGATGT, the “relative binding free energy” value is reported as 0.05 kcal/mol.
In the case of AAAGTCACGTGTTGTT, the “relative binding free energy” value is reported as 0.02 kcal/mol.
For TGCAACACGTGAAGGT, the “relative binding free energy” value was 0.31 kcal/mol.
With GCTTGCACGTGTGGTA the “relative binding free energy” value was -0.03 kcal/mol.
With TTGCGCACGTGGTTTC the “relative binding free energy” value was -0.17 kcal/mol.
For CTGCACACGTGTGTTT, the “relative binding free energy” value was 0.1 kcal/mol.
With CTGAGCACGTGGGGTC the “relative binding free energy” value was -0.26 kcal/mol.
For TGGACCACGTGAAGGT, the “relative binding free energy” value was 0.32 kcal/mol.
In the case of GAATTCACGTGAGTCT, the “relative binding free energy” value is reported as 0.52 kcal/mol.
For AATATCACGTGAGAGT, the “relative binding free energy” value was 0.34 kcal/mol.
For ACGCGCACGTGGTGTG, the “relative binding free energy” value was -0.24 kcal/mol.
In the case of AAGGTCACGTGGAATT, the “relative binding free energy” value is reported as 0.21 kcal/mol.
With GAATGCACGTGCGAGG the “relative binding free energy” value was -0.01 kcal/mol.
For AGTAGCACGTGGGAAT, the “relative binding free energy” value was -0.06 kcal/mol.
In the case of TTGTCCACGTGTGCGG, the “relative binding free energy” value is reported as 0.01 kcal/mol.
With AGGGCCACGTGGGTAA the “relative binding free energy” value was -0.22 kcal/mol.
With TGAGTCACGTGGTTGC the “relative binding free energy” value was -0.01 kcal/mol.
AGGTCCACGTGTATGG was tested, and the “relative binding free energy” value was -0.05 kcal/mol.
TGTGGCACGTGTAGGC was tested, and the “relative binding free energy” value was -0.06 kcal/mol.
In the case of TTTTTCACGTGCTAAT, the “relative binding free energy” value is reported as 0.23 kcal/mol.
For AGGTTCACGTGCGTAT, the “relative binding free energy” value was 0.23 kcal/mol.
GTTTGCACGTGCTTAG was tested, and the “relative binding free energy” value was -0.11 kcal/mol.
For GAGGGCACGTGTGGGA, the “relative binding free energy” value was 0.03 kcal/mol.
TAAAGCACGTGAAGGT was tested, and the “relative binding free energy” value was 0.16 kcal/mol.
In the case of CGTTGCACGTGTCTGG, the “relative binding free energy” value is reported as -0.02 kcal/mol.
AGAGCCACGTGTGAGG was tested, and the “relative binding free energy” value was -0.04 kcal/mol.
For AGAACCACGTGGTTGG, the “relative binding free energy” value was 0.01 kcal/mol.
With ATGGTCACGTGAGTAA the “relative binding free energy” value was 0.23 kcal/mol.
TGGGTCACGTGTCTTC was tested, and the “relative binding free energy” value was 0.2 kcal/mol.
With TTGGTCACGTGTCGAT the “relative binding free energy” value was 0.29 kcal/mol.
With TTTAACACGTGTAATT the “relative binding free energy” value was 0.08 kcal/mol.
TGTATCACGTGTTTAT was tested, and the “relative binding free energy” value was 0.25 kcal/mol.
For CTGGTCACGTGTTGCA, the “relative binding free energy” value was 0.1 kcal/mol.
In the case of GGTGGCACGTGTAGAA, the “relative binding free energy” value is reported as 0.06 kcal/mol.
AAAGTCACGTGGATGT was tested, and the “relative binding free energy” value was 0.04 kcal/mol.
AGGTGCACGTGTTTTA was tested, and the “relative binding free energy” value was 0.06 kcal/mol.
For CGGATCACGTGGGTAG, the “relative binding free energy” value was -0.06 kcal/mol.
CAGAGCACGTGGGGGA was tested, and the “relative binding free energy” value was -0.26 kcal/mol.
In the case of AACATCACGTGGAGGG, the “relative binding free energy” value is reported as 0.18 kcal/mol.
In the case of ATGGTCACGTGGTACG, the “relative binding free energy” value is reported as 0 kcal/mol.
GATGACACGTGAATGG was tested, and the “relative binding free energy” value was 0.24 kcal/mol.
For GGTCCCACGTGGGTGG, the “relative binding free energy” value was -0.22 kcal/mol.
With AGTATCACGTGTATAA the “relative binding free energy” value was 0.11 kcal/mol.
In the case of AGGGTCACGTGTTTTA, the “relative binding free energy” value is reported as 0.17 kcal/mol.
For GTATACACGTGGAGAG, the “relative binding free energy” value was 0.09 kcal/mol.
In the case of GAATTCACGTGATGAG, the “relative binding free energy” value is reported as 0.43 kcal/mol.
For TAAAGCACGTGGGTTG, the “relative binding free energy” value was -0.22 kcal/mol.
In the case of GGACGCACGTGAGGGG, the “relative binding free energy” value is reported as 0.09 kcal/mol.
For GTTTCCACGTGGTTTC, the “relative binding free energy” value was 0.23 kcal/mol.
For ATCGGCACGTGAGTAT, the “relative binding free energy” value was 0.13 kcal/mol.
TTTAACACGTGCGGTA was tested, and the “relative binding free energy” value was -0.04 kcal/mol.
GTGAACACGTGGTGCT was tested, and the “relative binding free energy” value was -0.02 kcal/mol.
GGATCCACGTGGGGAG was tested, and the “relative binding free energy” value was -0.04 kcal/mol.
With GGGGCCACGTGGTTAT the “relative binding free energy” value was 0.04 kcal/mol.
For CTTGTCACGTGGAGAG, the “relative binding free energy” value was 0.05 kcal/mol.
For TGGTCCACGTGATGTG, the “relative binding free energy” value was 0.17 kcal/mol.
For ATATGCACGTGGGATA, the “relative binding free energy” value was -0.14 kcal/mol.
For GGACTCACGTGGGAGG, the “relative binding free energy” value was 0.08 kcal/mol.
For GGATACACGTGAATTT, the “relative binding free energy” value was 0.37 kcal/mol.
For TGGTCCACGTGGGGAT, the “relative binding free energy” value was -0.19 kcal/mol.
For ATTACCACGTGCGGGG, the “relative binding free energy” value was -0.08 kcal/mol.
In the case of CCGGGCACGTGTGGTG, the “relative binding free energy” value is reported as -0.02 kcal/mol.
AGTCGCACGTGATGGT was tested, and the “relative binding free energy” value was 0.11 kcal/mol.
With TCCTACACGTGTTGGA the “relative binding free energy” value was 0.38 kcal/mol.
For AAGGTCACGTGGAGGC, the “relative binding free energy” value was 0.07 kcal/mol.
In the case of GGGATCACGTGGCGGC, the “relative binding free energy” value is reported as 0.16 kcal/mol.
For ATGTTCACGTGTGCAT, the “relative binding free energy” value was 0.34 kcal/mol.
